Data reported in the supplement of paper PMC11417369.
± gives the standard deviation of the averaged measurements. The list shows a part of the results.

tested on: PfAP2-G AP2 domain (GST-tagged); experiment: gcPBM binding intensity (ln(normalized median fluorescence intensity)); higher = stronger DNA binding
Procedure, shortened: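 Binding intensity is defined as the maximum Masliner-normalised natural-log median intensity across replicate spots for either probe orientation. It was measured on an Agilent 4 × 180k array of primer-extended double-stranded 36-bp intergenic genomic probes and negative controls, to which GST-tagged P. falciparum DNA-binding domains made in E. coli were applied for 1 h in 1× PBS with 1% milk, 0.2 mg/ml BSA, 0.5% salmon testes DNA and 0.03% Triton X-100. Detection was by Alexa488 anti-GST antibody and scanning at 488 nm.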

| Sequence | gcPBM binding intensity (ln) |
| --- | --- |
| AAATTTTTTATGAACACACAAATACACGCACTCAAA [CACACA_site7286] | 10.8 ± 0.4 |
| TTTTTATTTAATAGTTGTACATTGAAAAATATGTAT [XGTACX_site3025] | 11.3 ± 0.85 |
| TATATATATATATATGTGCACTGGACATATTTTTAT [GTGCAC_site9721] | 10.7 ± 0.58 |
| GCTCTATCAAAAAAATGTACACATATTATCATTCAT [XGTACX_site143] | 11.3 ± 0.76 |
| CAAATAAATATTAAAAGTACACACAGATACACTAAT [XGTACX_site3749] | 11.4 ± 0.86 |
| TGATTAAATAAATATATATATTTATATATTATACAG [CACACA_negctrl_site1596] | 9.9 ± 0.38 |
| TATATTTATTATAATTGTACATAAAATAAACTAAGA [XGTACX_site4318] | 11.1 ± 0.79 |
| AAATAATTAAACATATGTACATATTATATATATATA [XGTACX_site6774] | 11.2 ± 0.53 |
| TCCTCATTTTATCATACACACTTGTTTATATGGGTG [CACACA_site4650] | 10.3 ± 0.15 |
| ACCCATAAAAATTATGCACACTTAATAAAGCGAAAT [CACACA_site5722] | 10.1 ± 0.11 |
| ATAATTTATTTTAAAAGTACTCAATTTGCTTTTCTC [XGTACX_site5749] | 11.3 ± 0.97 |
| TTTACAAAAAATTATACACACACGTACAGATAAATA [CACACA_site4678] | 11.5 ± 0.81 |
| GCTAATTTATTTTGCAGTACATATATAATAATATAT [XGTACX_site478] | 10.9 ± 0.67 |
| AATATTTATATTTAGTGTACAGAAATAAAAAAAAAA [XGTACX_site6066] | 11.3 ± 0.93 |
| CAAAAAAAAAAAAAAACACACATTAAATTAGAAAGA [CACACA_site7271] | 9.64 ± 0.14 |
| ATATACATTTAAATGTGTACATAATAAAATAAAAAA [XGTACX_site8170] | 11.5 ± 1 |
| ACATCTGTTATTTGTGGTACTAAAAAAATATATAGT [XGTACX_site8322] | 11.2 ± 0.76 |
| TCTTTTTAGATATATACACACCGTGTCTACCTATAC [CACACA_site7551] | 10.1 ± 0.23 |
| ATATTCCTACATACAACACACGACGTTCTCATAAGA [CACACA_site231] | 10.1 ± 0.13 |

| Sequence | gcPBM binding intensity (ln) |
| --- | --- |
| GGAAAATGAAAAACAAAAAAAAAAAAAAAAAAATGA [TGCATGCA_negctrl_site432] | 9.64 ± 0.13 |
| AAAAATAGACAAAAGAGTACAAGAAAAAAAGGGTTC [XGTACX_site7843] | 11.3 ± 0.77 |
| TTGATCTATAATAATACACACTTACATAATTAATTA [CACACA_site6273] | 9.96 ± 0.16 |
| ATATATATATATGTCTGTACATAAAAAATAATAAAT [XGTACX_site3122] | 11.1 ± 0.7 |
| TTTTAAAGTTGTGAGCTTCATTTTTATTTATATGTA [CACACA_negctrl_site1505] | 9.87 ± 0.057 |
| TTACAATTAATAAAGTGTACTTAACTATTATATATA [XGTACX_site481] | 11.3 ± 0.95 |
| TTTTTAAATATAAACAAAAAAAAAAAATATATCAAT [XGTACX_negctrl_site328] | 9.805 ± 0.064 |
| ATCATATTTATGTTGGTGCATTATGCATGGATTTTA [GTGCAC_site9795] | 9.915 ± 0.021 |
| ATTTTTATTTTTATTTGTACTTATATATTCTTAAGC [XGTACX_site4122] | 11.3 ± 0.8 |
| ATAATATAAATACAAACACACAATTGTGTCCACATT [CACACA_site6920] | 11.4 ± 0.87 |
| AATACCCAAGGACACACACACACATATATATATATA [CACACA_site8345] | 10.9 ± 0.55 |
| ATTAAAAAAGAATATACACACCAAAACTGTTTGTTA [CACACA_site4687] | 9.825 ± 0.021 |
| TAAAAAAATTTAACATGTACAAATATTGAAAAGGAC [XGTACX_site7608] | 11.1 ± 0.47 |
| GAAGAATAAATATGCACACATGCATATATTTTTACA [CACACA_site3459] | 9.88 ± 0.071 |
| TTTATTATCTTATTCACACACATATATATATATATA [CACACA_site2869] | 10.3 ± 0.54 |
| ATATATTTTTACCATACACACATATAACAAATATAT [CACACA_site7706] | 10.3 ± 0.16 |
| AGAAAAAAAAAAAAAAAAAAAAAATTGAATATATAT [TGCATGCA_negctrl_site55] | 9.29 ± 0.12 |
| TACAATTCGTAATACACACACATATATATATATATT [CACACA_site3751] | 9.93 ± 0.071 |
| AGAGCATAATAAAACACACACATACATACCTATATA [CACACA_site6566] | 9.92 ± 0.057 |

| Sequence | gcPBM binding intensity (ln) |
| --- | --- |
| AAAAAATATTGAAGTACACACATTATGAACTTTTTT [CACACA_site1733] | 11.6 ± 0.88 |
| ATAAATAATTATAATTGTACACATATATATATATAC [XGTACX_site3998] | 11.4 ± 0.76 |
| TTCCACATTTTACAGACACACACAATTTATATTACG [CACACA_site8572] | 10.2 ± 0.18 |
| AAATATATATAAATGAGTACTTATGGTAACATATAT [XGTACX_site6362] | 11.4 ± 0.73 |
| AATAAATTAATTTTGGGTACATATATATATATATAT [XGTACX_site3807] | 11.3 ± 0.91 |
| TGTTTTTATAATATTAGTACATAATATACATAATTC [XGTACX_site2787] | 11.1 ± 0.85 |
| GTAAGTTGTGCATTCACACACATATATATATATATA [CACACA_site3303] | 10.4 ± 0.55 |
| TTTTGTTTCTATATAAGATGGAAATATAAACTTGTA [CACACA_negctrl_site82] | 9.95 ± 0.2 |
| TTAAGATCCTAAAAAACACACAATTGTGAATAATAA [CACACA_site3872] | 10.2 ± 0.16 |
| TATATATATATATATACATGCATATATATAATATAT [TGCATGCA_site763] | 9.91 ± 0.59 |
| AATCCTTTACGACACACACACAAAAAAAAAAAAAAA [CACACA_site6449] | 10.2 ± 0.52 |
| AATATTTTAATGCACACACACAAAAAAAAAAAAAAA [CACACA_site7374] | 10.2 ± 0.59 |
| AAAGTAGAATATCCCCTACACACCCAAATAATTTAC [CACACA_site1255] | 10.26 ± 0.035 |
| TTTTTCTTTCTTTCTTTTTTAATATTACAAATGTAT [XGTACX_negctrl_site267] | 10.2 ± 0.18 |
| TTATTAAAACAAAATGTACACACATATAATTTAATG [CACACA_site8193] | 11.3 ± 0.73 |
| TTCAATGCATGTCCATGTACATATAAAAAAAAATAC [XGTACX_site1597] | 11.4 ± 0.73 |
| TGTTGGCAGGTGAATGCATGCATATAAGTCTATCTG [TGCATGCA_site781] | 9.86 ± 0.014 |
| CACCCTTTACACAAGGTGCATACTTTATTATATTTT [GTGCAC_site9778] | 10.16 ± 0.078 |
